Laboratory results published in a collection of fitness landscapes (doi:10.1126/science.1257360).
The list shows a part of the results.

B1: PhoQ; a variant is named by its letters at X, in order, P23837 (parent)
chain: MKKLLRLFFPLSLRVRFLLATAAVVLVLSLAYGMVALIGYSVSFDKTTFRLLRGESNLFYTLAKWENNKLHVELPENIDKQSPTMTLIYDENGQLLWAQRDVPWLMKMIQPDWLKSNGFHEIEADVNDTSLLLSGDHSIQQQLQEVREDDDDAEMTHSVAVNVYPATSRMPKLTIVVVDTIPVELKSSYMVWSWFIYVLSANLLLVIPLLWVAAWWSLRPIEALAKEVRELEEHNRELLNPATTRELTSLVRNLNRLLKSERERYDKYRTTLTDLTHSLKTPLXXLQXXLRSLRSEKMSVSDAEPVMLEQISRISQQIGYYLHRASMRGGTLLSRELHPVAPLLDNLTSALNKVYQRKGVNISLDISPEISFVGEQNDFVEVMGNVLDNACKYCLEFVEISARQTDEHLYIVVEDDGPGIPLSKREVIFDRGQRVDTLRPGQGVGLAVAREITEQYEGKIVAGESMLGGARMEVIFGRQHSAPKDE

Variants of: B1
Test: enrichment ratio after two sorts for PhoP signalling (ratio (wild type AVST 3.29)); higher = more functional
Conditions: with PhoP (E. coli)

| Variant | enrichment ratio |
| --- | --- |
| IFWY | ≤ 0.25 |
| LRVM | ≤ 0.25 |
| MTYQ | 2.5 |
| TTFK | ≤ 0.25 |
| DEKH | ≤ 0.25 |
| RVKR | 4.54 |
| LQSY | ≤ 0.25 |
| AECK | ≤ 0.25 |
| YYQV | ≤ 0.25 |
| MRFM | ≤ 0.25 |
| NCRT | ≤ 0.25 |
| WFYP | ≤ 0.25 |
| NTEH | ≤ 0.25 |
| IDMA | ≤ 0.25 |
| ADNV | ≤ 0.25 |
| LEAS | 1.71 |
| FKFQ | ≤ 0.25 |
| YPQV | ≤ 0.25 |
| SAID | ≤ 0.25 |
| STCW | 9.07 |
| NFDV | ≤ 0.25 |
| SNEF | ≤ 0.25 |
| WGLI | 13.6 |
| HQFL | ≤ 0.25 |
| RVST | ≤ 0.25 |

| Variant | enrichment ratio |
| --- | --- |
| QRRQ | ≤ 0.25 |
| IGVA | ≤ 0.25 |
| IPQS | ≤ 0.25 |
| DQHA | ≤ 0.25 |
| TDAD | ≤ 0.25 |
| RIEY | ≤ 0.25 |
| VAME | ≤ 0.25 |
| PICK | ≤ 0.25 |
| TGRR | ≤ 0.25 |
| QFNM | ≤ 0.25 |
| RYAC | ≤ 0.25 |
| PFDP | ≤ 0.25 |
| EKHD | ≤ 0.25 |
| AWNI | ≤ 0.25 |
| LIWN | ≤ 0.25 |
| TVHM | ≤ 0.25 |
| DACR | ≤ 0.25 |
| FMTK | ≤ 0.25 |
| QARA | ≤ 0.25 |
| LKTI | ≤ 0.25 |
| GKVQ | ≤ 0.25 |
| VNII | ≤ 0.25 |
| VQAW | ≤ 0.25 |
| DPYD | ≤ 0.25 |
| CHFF | ≤ 0.25 |

| Variant | enrichment ratio |
| --- | --- |
| GFLM | 2.69 |
| GKYI | ≤ 0.25 |
| QPVT | ≤ 0.25 |
| ITFM | ≤ 0.25 |
| LQIR | ≤ 0.25 |
| NTIM | ≤ 0.25 |
| MQDP | ≤ 0.25 |
| ATDE | ≤ 0.25 |
| ESVI | ≤ 0.25 |
| YYTF | ≤ 0.25 |
| PRHI | ≤ 0.25 |
| DRTG | ≤ 0.25 |
| MAIY | ≤ 0.25 |
| MCRN | ≤ 0.25 |
| VYHT | ≤ 0.25 |
| ATKF | ≤ 0.25 |
| ENSV | ≤ 0.25 |
| VHKW | ≤ 0.25 |
| ELAR | ≤ 0.25 |
| PIPC | ≤ 0.25 |
| LEHT | ≤ 0.25 |
| MTNF | 3.09 |
| PWQI | ≤ 0.25 |
| NRIP | ≤ 0.25 |
| WVIG | ≤ 0.25 |

| Variant | enrichment ratio |
| --- | --- |
| SWKT | ≤ 0.25 |
| EFII | ≤ 0.25 |
| RFEQ | ≤ 0.25 |
| FAET | ≤ 0.25 |
| PHPG | ≤ 0.25 |
| HLFM | ≤ 0.25 |
| FKFR | ≤ 0.25 |
| TGAG | 5.21 |
| LFVE | ≤ 0.25 |
| ILHE | ≤ 0.25 |
| MARP | ≤ 0.25 |
| LDDL | ≤ 0.25 |
| GDHS | ≤ 0.25 |
| HMSK | ≤ 0.25 |
| MNIE | ≤ 0.25 |
| DWVS | ≤ 0.25 |
| PYYY | ≤ 0.25 |
| EGSI | ≤ 0.25 |
| FWLY | ≤ 0.25 |
| KTAC | ≤ 0.25 |
| TAYN | 10.1 |
| TSVT | 3.11 |
| MTPP | ≤ 0.25 |
| ELFC | ≤ 0.25 |
| LFFN | ≤ 0.25 |

| Variant | enrichment ratio |
| --- | --- |
| LNSN | 0.263 |
| GADF | ≤ 0.25 |
| MQYV | ≤ 0.25 |
| TSPL | ≤ 0.25 |
| FPWS | ≤ 0.25 |
| MICE | ≤ 0.25 |
| LNCN | ≤ 0.25 |
| AIRF | ≤ 0.25 |
| QGKP | ≤ 0.25 |
| GAFW | ≤ 0.25 |
| IQLT | ≤ 0.25 |
| RYSW | ≤ 0.25 |
| EIYG | ≤ 0.25 |
| QCMY | ≤ 0.25 |
| GLHF | ≤ 0.25 |
| GDIF | ≤ 0.25 |
| RTVA | ≤ 0.25 |
| NHFT | ≤ 0.25 |
| HEYL | ≤ 0.25 |
| PMKG | ≤ 0.25 |
| AAWR | ≤ 0.25 |
| RHNQ | ≤ 0.25 |
| IDHG | ≤ 0.25 |
| YEVR | ≤ 0.25 |
| AECM | 0.803 |

| Variant | enrichment ratio |
| --- | --- |
| CHVL | ≤ 0.25 |
| MKNE | ≤ 0.25 |
| MRAS | ≤ 0.25 |
| MGRH | ≤ 0.25 |
| KWHS | ≤ 0.25 |
| KCPA | ≤ 0.25 |
| NDGL | ≤ 0.25 |
| SKIC | 30.5 |
| KCLR | ≤ 0.25 |
| SDGV | ≤ 0.25 |
| KVHE | ≤ 0.25 |
| PLFQ | ≤ 0.25 |
| FASQ | ≤ 0.25 |
| STAT | 4.76 |
| ISEE | ≤ 0.25 |
| TPWE | ≤ 0.25 |
| ILLI | ≤ 0.25 |
| MADF | ≤ 0.25 |
| LGDA | ≤ 0.25 |
| RQFD | ≤ 0.25 |
| DTFK | ≤ 0.25 |
| THYW | ≤ 0.25 |
| LYTH | ≤ 0.25 |
| DMPI | ≤ 0.25 |
| KNST | ≤ 0.25 |

| Variant | enrichment ratio |
| --- | --- |
| KSGI | ≤ 0.25 |
| PMSM | ≤ 0.25 |
| VQEH | ≤ 0.25 |
| ILLW | ≤ 0.25 |
| QFVF | ≤ 0.25 |
| NAEP | ≤ 0.25 |
| GLIC | ≤ 0.25 |
| QNYT | ≤ 0.25 |
| QLVT | ≤ 0.25 |
| WHRH | ≤ 0.25 |
| MFMD | ≤ 0.25 |
| EENT | ≤ 0.25 |
| QEMD | ≤ 0.25 |
| ITPW | ≤ 0.25 |
| NEYP | ≤ 0.25 |
| HQYF | ≤ 0.25 |
| IDSE | ≤ 0.25 |
| RIMS | ≤ 0.25 |
| KLWN | ≤ 0.25 |
| VIPT | ≤ 0.25 |
| WDDR | ≤ 0.25 |
| YWKY | ≤ 0.25 |
| TAAQ | 5.45 |
| AISG | 19 |
| EGVR | ≤ 0.25 |

| Variant | enrichment ratio |
| --- | --- |
| LGTV | ≤ 0.25 |
| ENRR | ≤ 0.25 |
| AVWI | ≤ 0.25 |
| VNMK | ≤ 0.25 |
| QCPM | ≤ 0.25 |
| DDYN | ≤ 0.25 |
| HMHQ | ≤ 0.25 |
| LSMY | ≤ 0.25 |
| PQRQ | ≤ 0.25 |
| GPWI | ≤ 0.25 |
| FCIA | ≤ 0.25 |
| YHHE | ≤ 0.25 |
| LFDA | ≤ 0.25 |
| YTDH | ≤ 0.25 |
| NFSA | ≤ 0.25 |
| LWMI | ≤ 0.25 |
| GDNI | ≤ 0.25 |
| GNFA | ≤ 0.25 |
| WKDP | ≤ 0.25 |
| IPKY | ≤ 0.25 |
